Reference: PubChem BioAssay AID1768 (National Center for Advancing Translational Sciences (NCATS), 2009)
Among all 270,000 compounds or so, about 620 (0.23%) were called active. The shares of active, inactive and inconclusive entries below differ from those in the screen. Calls follow the shape of the dose curve; as a rule, active = well fitted inhibition curve with a large enough effect in the polarisation, with a control signal flat (not every such curve was filed as active); inconclusive = small, poorly fitted or top-dose-only effect, or effect the other way, or a change in a side signal; inactive = no such curve, though single readings can be large or run the other way; the % refers to the polarisation. Potencies of inconclusive entries are doubtful fits and often do not repeat. A note “side channel” means that the fit belongs to a control or component signal, not to the main read-out.

molecular target: Menin (Homo sapiens) (UniProt O00255); assay: qHTS Assay for Inhibitors Targeting the Menin-MLL Interaction in MLL Related Leukemias: Competition With Texas Red Labeled MLL-derived Mutant Peptide; details: fluorescence polarization; FP activity change, negative = inhibition: at 61.6 µM (top of the series); as to FP activity change, negative = inhibition: % of control where 0% means no effect
UniProt O00255, sequence (O00255 whole entry, looked up): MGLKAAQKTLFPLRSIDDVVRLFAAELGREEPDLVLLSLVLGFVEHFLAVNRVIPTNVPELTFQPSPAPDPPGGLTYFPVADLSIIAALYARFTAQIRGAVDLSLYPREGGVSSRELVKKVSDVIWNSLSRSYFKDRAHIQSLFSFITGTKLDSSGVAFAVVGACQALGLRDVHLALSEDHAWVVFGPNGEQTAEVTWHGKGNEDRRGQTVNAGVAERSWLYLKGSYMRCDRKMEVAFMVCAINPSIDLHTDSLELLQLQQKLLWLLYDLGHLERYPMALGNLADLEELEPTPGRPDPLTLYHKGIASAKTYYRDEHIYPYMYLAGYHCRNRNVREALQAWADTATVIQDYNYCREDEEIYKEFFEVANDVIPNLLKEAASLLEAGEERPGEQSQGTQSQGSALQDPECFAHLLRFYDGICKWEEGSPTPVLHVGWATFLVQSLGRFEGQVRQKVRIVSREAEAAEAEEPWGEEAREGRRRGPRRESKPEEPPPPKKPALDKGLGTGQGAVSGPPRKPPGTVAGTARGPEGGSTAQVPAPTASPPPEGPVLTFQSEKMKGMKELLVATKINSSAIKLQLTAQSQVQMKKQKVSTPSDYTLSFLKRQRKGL
Potency is read from the fitted curve at half-maximal effect; tags tell the direction and shape of the fitted curve or compound fluorescence and quenching.

Potency, inconclusive:
CCOC(=O)C1=C(C)N=c2s/c(=C\c3ccc(OCC(=O)O)cc3)c(=O)n2C1c1ccc(OC(C)C)cc1 (centres undefined) 12.6 µM [quencher, side channel, partial curve], CC(Oc1ccccc1)C(=O)N=Nc1c(O)[nH]c2ccc([N+](=O)[O-])cc12 (centres undefined) 39.8 µM [quencher, side channel, single point], COc1ccc(CCC(C)NCc2ccc(Cl)c(Cl)c2)cc1 (centres undefined) 25.1 µM [fluorescent, side channel, partial curve], COc1cc(NC(=O)c2cccc(C)c2)c(OC)cc1NC(=O)CN1CCCCC1 17.8 µM [inhibitor, partial curve], CC(C)(C)[C@H]1C=C(C(=O)N2CCN(Cc3ccc4c(c3)OCO4)CC2)O[C@@H](OCCCCO)C1 14.1 µM [fluorescent, side channel, partial curve], CCc1c(C)sc(NC(=O)c2cc(-c3cc(OC)ccc3OC)on2)c1C#N 3.16 µM [quencher, side channel, full curve, poor fit], COc1ccc(NC(=O)Nc2ccccc2SC)cc1OC 28.2 µM [quencher, side channel, single point], COc1ccc(Cl)cc1NC(=O)C1CC(c2ccccc2O)=NO1 (centres undefined) 39.8 µM [fluorescent, side channel, single point], O=S(=O)(/N=C(/NC(=S)Nc1ccccc1)c1ccccc1)c1ccc(Cl)cc1 39.8 µM [quencher, side channel, single point], Cc1ccc2c(Cl)cc(Cl)c(OCC(=O)NCc3ccco3)c2n1 28.2 µM [quencher, side channel, single point], C=CC1=C(C)C2=Cc3c(C=C)c(C)c4[n]3[Sn+2][n]3c(c(C)c(CCC(=O)O)c3=CC3=NC(=C4)C(C)=C3CCC(=O)O)=CC1=N2 11.2 µM [fluorescent, side channel, partial curve], CCC(C)NCCCOc1c(C)cc(C)cc1Br (centres undefined) 35.5 µM [fluorescent, side channel, single point], COc1ccc(-c2csc(NC(=O)C3COc4ccccc4O3)n2)cc1OC (centres undefined) 17.8 µM [quencher, side channel, partial curve], COC(=O)N/N=C/c1cn(CC(C)COc2ccccc2)c2ccccc12 (centres undefined) 39.8 µM [quencher, side channel, single point], CC(C)(C)S(=O)(=O)c1cnc2c(-c3ccc(Cl)cc3)cnn2c1N 39.8 µM [inhibitor, single point], O=C(Cn1c(=O)oc2cc(S(=O)(=O)N3CCCC3)ccc21)NCc1ccc(F)cc1 39.8 µM [inhibitor, single point], CCOC(=O)N1CCC(N2Cc3cccc(C(=O)N4CCN(c5cccc(C)c5C)CC4)c3C2=O)CC1 1.78 µM [fluorescent, side channel, partial curve, poor fit], NS(=O)(=O)c1ccc(N/N=C/c2cn(-c3ccccc3)nc2-c2ccccc2)c([N+](=O)[O-])c1 3.16 µM [quencher, side channel, full curve], O=C(c1ccco1)[C@@H]1[C@@H]2C(=O)N(c3ccc(F)cc3)C(=O)[C@@H]2C2c3ccccc3C=CN21 (some centres undefined) 28.2 µM [quencher, side channel, single point], CCNC(=S)N1CCN(c2nc(-c3cccc(OC)c3)cs2)CC1 25.1 µM [quencher, side channel, partial curve], CC(C)CCNC(=O)C(C)N(C(=O)c1snc(C(N)=O)c1N)c1cnc2ccccc2c1 (centres undefined) 10 µM [fluorescent, side channel, partial curve], O=C(O)c1cc(NC(=O)c2ccc(Cl)c([N+](=O)[O-])c2)cc(C(=O)O)c1 10 µM [quencher, side channel, partial curve], Cc1ccc(NC(=O)CN2CCCCC2)c2c1CC(C)(C)O2 11.2 µM [fluorescent, side channel, partial curve], CCCNC(=O)c1ccc2c(c1)ncn2-c1cc(C)cc(C)c1 22.4 µM [fluorescent, side channel, single point], COc1ccc2c(c1)-c1c(sn(-c3ccccc3)c1=S)C(C)(C)N2 8.91 µM [quencher, side channel, partial curve], CCOC(=O)c1ccc(NC(=O)Nc2ccc(F)cc2)cc1 12.6 µM [quencher, side channel, partial curve], CCn1c(COc2ccc(C(C)C)cc2)nnc1SCC(=O)Nc1nccs1 3.55 µM [fluorescent, side channel, single point], CC(C)C(=O)NC(c1cccc([N+](=O)[O-])c1)c1c(O)ccc2ccccc12 (centres undefined) 12.6 µM [quencher, side channel, partial curve], CCCN1Cc2cccc(C(=O)NCCCOC(C)C)c2C1=O 6.31 µM [inhibitor, partial curve], Cc1csc(=N)n1-c1ccc(Cl)cc1 35.5 µM [quencher, side channel, partial curve], Cc1ccccc1/C=C1\C(=O)Nc2ccc(F)cc21 28.2 µM [inhibitor, partial curve], CCCn1nc2cc(C(=O)NCc3ccccc3OC)ccc2c1OCC 1.78 µM [inhibitor, full curve], CCOC(=O)c1cnc2ccc(OCC)cc2c1N1CCN(c2ccccc2)CC1 2.24 µM [fluorescent, side channel, full curve, poor fit], COc1ccc(-n2c(SCc3ccc([N+](=O)[O-])cc3)nnc2-c2ccc(C)cc2)cc1 10 µM [inhibitor, partial curve], COc1ccc(C(C(=O)NC(C)(C)C)N(Cc2ccco2)C(=O)CCC(=O)Nc2cc(C)on2)cc1 (centres undefined) 6.31 µM [inhibitor, full curve], CCOc1ccc(N2C(=O)/C(=C\c3ccc(O)c(OC)c3)S(=O)(=O)C2c2cccc([N+](=O)[O-])c2)cc1 (centres undefined) 39.8 µM [quencher, side channel, single point], Cc1ccccc1N1C(=O)CSC1=C(C#N)C#N 39.8 µM [fluorescent, side channel, single point], Cc1cc(/C=N/n2cnnc2)c(C)n1-c1ccc(OCc2ccc(F)cc2)cc1 11.2 µM [fluorescent, side channel, partial curve], COC(=O)c1ccccc1NC(=O)CCC(=O)N1CC(C)Oc2ccc(C)cc21 (centres undefined) 31.6 µM [inhibitor, single point], COc1ccc(NC(=O)CN(CC(=O)Nc2ccc(OC)cc2)C(C)(C)CO)cc1 25.1 µM [quencher, side channel, partial curve], O=S(=O)(c1ccc2nc(-c3ccccc3)[nH]c2c1)N1CCN(c2cccc(Cl)c2)CC1 3.16 µM [quencher, side channel, full curve], Cc1csc(SCC(=O)Nc2ccccn2)n1 7.08 µM [inhibitor, single point], CCCCNC(=O)CSc1nc2ccccc2c(=O)n1CC1COc2ccccc2O1 (centres undefined) 11.2 µM [fluorescent, side channel, partial curve], Fc1cccc(CN2CCN3CCCC3C2C2CCCCC2)c1 (centres undefined) 1.26 µM [inhibitor, full curve, poor fit], Cc1cnc(CNc2cc(-c3cccnc3)ncn2)cn1 8.91 µM [inhibitor, single point], CC(C)C(NS(=O)(=O)c1c(Cl)cccc1Cl)C(=O)OCC(=O)c1c[nH]c2ccccc12 (centres undefined) 22.4 µM [quencher, side channel, partial curve], CCOC(=O)/C(Sc1nc(-c2ccccc2)cc(-c2ccccc2)c1C#N)=C(\C)O 25.1 µM [quencher, side channel, partial curve], CN(C)c1ccc(/C=N/NC2=NS(=O)(=O)c3ccccc32)cc1 11.2 µM [quencher, side channel, partial curve], CCC(C)c1ccc(NC(=S)NC2CCN(Cc3ccccc3)CC2)cc1 (centres undefined) 22.4 µM [fluorescent, side channel, single point], Cc1cc(C(=O)CSc2nnc(Nc3ccccc3)s2)c(C)n1CC1CCCO1 (centres undefined) 22.4 µM [quencher, side channel, single point]

FP activity change, negative = inhibition, inactive:
CCN(CC)c1ccc(/C=C2/SC(=O)N(C(C)C)C2=O)o1 1.04%, CC1OC2(C)OC(=N)C1(C#N)C(C#N)(C#N)C2c1ccccc1 (centres undefined) -1.53%, Cc1cc(C)n2cc(CSc3nnnn3C)nc2n1 -7.22%, O=C(O)C1C2C=CC(C2)C1C(=O)Nc1ccc(Cl)c(Cl)c1 (centres undefined) -5.63%
